In patent US20200405890A1 (CYTOMX THERAPEUTICS, published 2020):

B1: CX-072-N-sucDf (activatable anti-PD-L1 antibody CX-072 conjugated with N-succinyldesferal) (antibody)
heavy: EVQLLESGGGLVQPGGSLRLSCAASGFTFSSYAMSWVRQAPGKGLEWVSSIWRNGIVTVYADSVKGRFTISRDNSKNTLYLQMNSLRAEDTAVYYCAKWSAAFDYWGQGTLVTVSSASTKGPSVFPLAPCSRSTSESTAALGCLVKDYFPEPVTVSWNSGALTSGVHTFPAVLQSSGLYSLSSVVTVPSSSLGTKTYTCNVDHKPSNTKVDKRV[letters of human IgG4 Fc with S228P (EU numbers) left out]
light: QGQSGSGIALCPSHFCQLPQTGGGSSGGSGGSGGISSGLLSGRSDNHGGSDIQMTQSPSSLSASVGDRVTITCRASQSISSYLNWYQQKPGKAPKLLIYAASSLQSGVPSRFSGSGSGTDFTLTISSLQPEDFATYYCQQDNGYPSTFGGGTKVEIKRTVAAPSVFIFPPSDEQLKSGTASVVCLLNNFYPREAKVQWKVDNALQSGNSQESVTEQDSKDSTYSLSSTLTLSKADYEKHKVYACEVTHQGLSSPVTKSFNRGEC
notes: It carries the chelator N-succinyldesferrioxamine (N-sucDf); also called Df-Suc-N-CX-072; N-sucDf conjugate of CX-072
B2: CX-075-N-sucDf (parental anti-PD-L1 antibody CX-075 conjugated with N-succinyldesferal) (antibody)
heavy: B1 heavy
light: DIQMTQSPSSLSASVGDRVTITCRASQSISSYLNWYQQKPGKAPKLLIYAASSLQSGVPSRFSGSGSGTDFTLTISSLQPEDFATYYCQQDNGYPSTFGGGTKVEIKRTVAAPSVFIFPPSDEQLKSGTASVVCLLNNFYPREAKVQWKVDNALQSGNSQESVTEQDSKDSTYSLSSTLTLSKADYEKHKVYACEVTHQGLSSPVTKSFNRGEC
notes: It carries the N-sucDf chelator; also called Df-Suc-N-CX-075; PDL1-Ab
B3: 89Zr-CX-075 (radiolabeled parental anti-PD-L1 antibody) (antibody)
heavy: B1 heavy
light: B2 light
notes: 89Zr is chelated by N-sucDf conjugated to CX-075; also called 89Zr-PDL1-Ab

Legend:
[1] = target: T1, human extracellular PD-L1 domain (R&D Systems; 156-B7-100) (human, UniProt Q9NZQ7 partial chain); experiment: indirect ELISA, plate coated with human PD-L1 extracellular domain, anti-human IgG-HRP detection
UniProt Q9NZQ7, sequence (Q9NZQ7 19-238): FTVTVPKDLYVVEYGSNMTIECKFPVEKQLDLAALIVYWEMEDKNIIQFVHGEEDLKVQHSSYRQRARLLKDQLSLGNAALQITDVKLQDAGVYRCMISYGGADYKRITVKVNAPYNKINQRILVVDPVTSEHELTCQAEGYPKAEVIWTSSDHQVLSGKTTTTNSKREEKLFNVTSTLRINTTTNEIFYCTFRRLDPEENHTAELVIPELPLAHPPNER
T1 construct: extracellular domain; Bought reagent coated on the ELISA plate at 1 ug/mL
Protocol: Immunoreactivity to PD-L1 of CX-072 and CX-075 after conjugation to TFP-N-sucDf was assessed by an indirect enzyme-linked immunosorbent assay (ELISA). 96-well plates (Nunc Maxisorp) were coated with 1 μg/mL human extracellular PD-L1 domain (R&D Systems; 156-B7-100) diluted in PBS (Givco; 0.7 mM sodium phosphate, 1.5 mM potassium phosphate, 154 mM sodium chloride, pH 7.2) and incubated overnight at 4° C. Wells were blocked for 2 hours at room temperature (RT) with 1% bovine serum albumin (Sigma-Adrich), 0.05% Tween 20 in PBS. After blocking, plates were incubated with either unconjugated CX-072, PbCtrl or CX-075 or their respective N-sucDf-conjugates in a concentration ranging from 0.00914 to 600 nM for 60 minutes at RT. Plates were subsequently washed with 0.05% Tween 20 in PBS and incubated with horseradish peroxidase-labeled anti-human IgG antibody (Sigma-Aldrich; A0293) for 60 minutes at RT. Detection was performed with single-component TMB peroxidase substrate (BioRad) and optical density read-out was performed at 450 nm using a micro plate-reader. Immunoreactivity to PD-L1 was expressed as the effective concentration needed for 50% of receptor occupation (EC50).

[2] = target: T2, PD-L1 in mouse spleen tissue (mouse, UniProt Q9EP73); experiment: PET quantification of spleen uptake in Balb/c nude mice, day 6 p.i.
T2 construct: whole, on cells; Endogenous mouse target in vivo; the species follows from the host animal; also called PD-L1 expressing spleen tissue
T2 sequence (Q9EP73 19-290): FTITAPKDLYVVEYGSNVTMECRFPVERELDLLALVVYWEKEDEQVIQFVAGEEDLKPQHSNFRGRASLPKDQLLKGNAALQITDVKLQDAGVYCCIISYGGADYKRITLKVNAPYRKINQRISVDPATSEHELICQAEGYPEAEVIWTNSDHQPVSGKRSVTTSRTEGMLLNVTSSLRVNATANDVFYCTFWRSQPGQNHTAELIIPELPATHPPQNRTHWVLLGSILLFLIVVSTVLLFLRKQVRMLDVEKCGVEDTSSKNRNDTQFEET
Protocol: Animals used for imaging and biodistribution studies were injected intravenously into the penile vein with 150 μl tracer solution, containing 10 μg ⁸⁹Zr-CX-072. 10 μg 89Zr-labeled non-binding isotype activatable antibody control (⁸⁹Zr-PBCtrl), or 10 g ⁸⁹Zr-CX-075 (5 MB1±0.5 MBq, 10 μg supplemented with 0, 40, 240 μg non-radiolabeled CX-072 or non-radiolabeled PBCtrl) resulting in total protein doses of 10, 50, 250 μg). Mice were subsequently scanned after 24, 72, and 144 h (i.e., 1 day, 3 days, and 6 days, respectively) post-injection (p.i.) using a Focus 220 microPET (CTI Molecular Imaging, Inc.) and subsequently sacrificed after the final scan. Organs of interest were excised, cleaned from blood and weighed. Samples and primed standards were counted in a calibrated well-type gamma-counter for radioactivity, and results expressed as percentage of injected dose per gram tissue (% ID/g).

Binder | binding result [1] | binding result [2]
B1 | binds | –
B2 | binds | –
B3 | – | binds
